Reference: patent publication US20130064827A1 (published 2013)

Target: T1, IL-17R extracellular domain (ECD) (residues 1-288), Examples 33/34 (human, UniProt Q96F46 33-320)
T1 construct: range 1-288; Migrated as a monomer; also called IL-17R ECD
Experiment: SPR (BIAcore 1000), IL-17 immobilized, IL-17R ECD in solution, 1:1 model

Kd: 72 nM | koff: 0.00067 s⁻¹ | kon: 9300 M⁻¹ s⁻¹
B1: IL-17, recombinant, Examples 33/34 (ligand)
chain: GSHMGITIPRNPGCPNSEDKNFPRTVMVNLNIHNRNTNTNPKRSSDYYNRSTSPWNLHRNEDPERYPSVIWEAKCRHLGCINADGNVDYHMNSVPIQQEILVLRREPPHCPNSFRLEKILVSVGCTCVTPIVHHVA
